Measured values taken from the supplement of paper PMC6531468.
Some of the results follow. Read counts after selection give these values, which scatter widely. Each score is taken over the longer molecules that contain the sequence shown.

What was measured:
Test in all cases: 6-mer SELEX enrichment z-score vs GST control; IMP3 is the RNA-binding protein IGF2BP3; higher = more enriched by binding
[1] = system: IMP3 KH1-4; details: construct: KH1-4 (164-579); SELEX round: R4
Procedure: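 SELEX-seq with GST-tagged IMP3 KH1-4 (Pro164-Lys579) and an N40 RNA pool, round 4. 6-mer z-score of sequence-tag enrichment normalised to the corresponding GST SELEX round; RNA k-mers written as DNA (T for U).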

[2] = system: IMP3 RRM1-2; details: construct: RRM1-2 (1-163); SELEX round: R2
Procedure: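 SELEX-seq with GST-tagged IMP3 RRM1-2 (Met1-Asn163) and an N40 RNA pool, round 2. 6-mer enrichment z-score normalised to GST SELEX. RNA written as DNA (T = U).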

[3] = biological target: IMP3 full-length (UniProt O00425); details: construct: FL IMP3 (1-579); SELEX round: R4
Procedure: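 SELEX-seq with GST-tagged full-length IMP3 and an N40 RNA pool, round 4. Each 6-mer is scored as an enrichment z-score of sequence tags containing it, normalised to the matching GST SELEX round. RNA written as DNA (T = U).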

[4] = system: IMP3 KH1-2; details: construct: KH1-2 (164-376); SELEX round: R4
Procedure: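 SELEX-seq with GST-tagged IMP3 KH1-2 (Pro164-Phe376) and an N40 RNA pool, round 4 (stringent 300/600 mM KCl washes). 6-mer z-score of sequence-tag enrichment normalised to the corresponding GST SELEX round; RNA k-mers written as DNA (T for U).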

[5] = system: IMP3 KH3-4; details: construct: KH3-4 (377-579); SELEX round: R4
Procedure: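 SELEX-seq with GST-tagged IMP3 KH3-4 (Pro377-Lys579) and an N40 RNA pool, round 4. 6-mer z-score of sequence-tag enrichment normalised to the corresponding GST SELEX round; RNA k-mers written as DNA (T for U).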

IMP3 KH1-4, sequence (chain, as listed by the source): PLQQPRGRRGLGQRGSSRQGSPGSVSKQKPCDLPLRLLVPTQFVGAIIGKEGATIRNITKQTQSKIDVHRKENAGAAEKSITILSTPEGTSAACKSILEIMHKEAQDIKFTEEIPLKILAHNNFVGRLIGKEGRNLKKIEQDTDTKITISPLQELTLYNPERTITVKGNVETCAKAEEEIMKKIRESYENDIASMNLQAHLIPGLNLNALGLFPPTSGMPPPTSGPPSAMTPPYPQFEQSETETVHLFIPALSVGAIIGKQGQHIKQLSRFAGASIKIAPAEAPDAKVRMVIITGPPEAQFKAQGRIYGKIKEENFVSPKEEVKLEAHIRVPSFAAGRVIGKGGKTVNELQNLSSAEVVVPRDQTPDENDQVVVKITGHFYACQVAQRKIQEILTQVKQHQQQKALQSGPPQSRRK
IMP3 RRM1-2, sequence (chain, as listed by the source): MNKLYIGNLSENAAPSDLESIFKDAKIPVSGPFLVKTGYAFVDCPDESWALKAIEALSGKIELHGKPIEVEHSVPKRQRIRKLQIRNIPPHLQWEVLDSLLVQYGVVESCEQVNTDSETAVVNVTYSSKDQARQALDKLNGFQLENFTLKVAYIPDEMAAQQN
UniProt O00425, sequence (O00425 whole entry): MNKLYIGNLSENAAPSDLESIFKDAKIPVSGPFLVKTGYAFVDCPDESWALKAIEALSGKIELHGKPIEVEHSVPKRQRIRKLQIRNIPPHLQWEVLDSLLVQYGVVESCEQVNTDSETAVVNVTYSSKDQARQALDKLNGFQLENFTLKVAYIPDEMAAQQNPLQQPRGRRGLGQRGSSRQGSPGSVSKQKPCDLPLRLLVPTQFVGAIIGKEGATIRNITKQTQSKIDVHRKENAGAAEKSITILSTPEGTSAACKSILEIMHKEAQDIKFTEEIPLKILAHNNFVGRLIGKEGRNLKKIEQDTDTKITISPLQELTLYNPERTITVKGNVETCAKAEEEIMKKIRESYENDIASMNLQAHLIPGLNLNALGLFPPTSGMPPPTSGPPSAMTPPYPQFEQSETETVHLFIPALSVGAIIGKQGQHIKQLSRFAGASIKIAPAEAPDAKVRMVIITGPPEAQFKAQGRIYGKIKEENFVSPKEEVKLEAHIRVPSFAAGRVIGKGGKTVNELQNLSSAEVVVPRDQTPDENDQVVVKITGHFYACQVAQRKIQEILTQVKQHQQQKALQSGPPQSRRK
IMP3 KH3-4, sequence (chain, as listed by the source): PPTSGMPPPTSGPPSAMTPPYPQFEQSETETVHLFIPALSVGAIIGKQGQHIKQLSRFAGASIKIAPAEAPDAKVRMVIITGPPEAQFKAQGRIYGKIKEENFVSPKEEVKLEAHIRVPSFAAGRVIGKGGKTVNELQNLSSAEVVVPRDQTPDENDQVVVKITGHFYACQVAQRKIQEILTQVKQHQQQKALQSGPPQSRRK
IMP3 KH1-2, sequence (chain, as listed by the source): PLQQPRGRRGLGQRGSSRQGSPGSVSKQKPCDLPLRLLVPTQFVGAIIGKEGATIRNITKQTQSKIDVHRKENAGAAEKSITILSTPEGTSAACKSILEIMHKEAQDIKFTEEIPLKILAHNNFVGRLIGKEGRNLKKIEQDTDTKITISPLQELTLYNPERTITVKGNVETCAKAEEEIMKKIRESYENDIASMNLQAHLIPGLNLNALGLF

| Sequence | 6-mer SELEX enrichment z-score [1] | 6-mer SELEX enrichment z-score [2] | 6-mer SELEX enrichment z-score [3] | 6-mer SELEX enrichment z-score [4] | 6-mer SELEX enrichment z-score [5] |
| --- | --- | --- | --- | --- | --- |
| CAAGGA | -0.025 | -0.578 | -0.163 | -0.173 | -0.038 |
| CAGCCA | 0.31 | 0.536 | 0.771 | 0.295 | -0.41 |
| ATAAAA | 0.955 | -1.81 | -0.936 | 1.4 | 2.9 |
| CCTACG | -1.06 | -0.441 | -0.958 | -1.03 | -1.22 |
| TTTCAA | 0.599 | 0.772 | 0.596 | 0.842 | 0.777 |
| CTCATA | 0.6 | 1.09 | 0.76 | 0.759 | 0.438 |
| GATGAC | 0.349 | -0.952 | -0.483 | 0.086 | 0.163 |
| GGCGGG | 0.507 | 0.082 | 1.18 | 0.966 | 0.665 |
| AGATGG | 0.747 | -0.261 | 0.075 | 0.578 | 0.892 |
| GCAGTT | -0.043 | 0.335 | 0.172 | -0.07 | 0.003 |
